In PubChem BioAssay (NCATS):
The inconclusive results got no clear call from the source; some entries with a clear call stand among them for comparison. For some assays here: Potencies beside an inconclusive call are fits to weak or partial responses and may not hold up. For some assays here: A note “side channel” means that the fit belongs to a control or component signal, not to the main read-out. Activity calls are given as the source filed them. Unless noted, calls come from the whole dose curve; as a rule, active = well fitted curve in the direction sought with a large enough effect; inconclusive = small, poorly fitted or top-dose-only effect, or another doubt; inactive = no such curve, though single readings can be large; an effect the other way counts as inactive or inconclusive.

Key:
[1] = NFAT Signaling Pathway (AID 444; active = well fitted curve in either direction with a large enough effect, not every such curve was filed as active; inconclusive = small, poorly fitted or top-dose-only effect, or another doubt;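 note: carbachol stimulus at about its EC50 of 1 µM final; % is set by controls: 0 for no effect and ±100 for the full control effect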); conditions: Jurkat NFAT-bla M1, carbachol, beta-lactamase ratio, 5 h; at 7.69 µM (top of the series) unless noted
Outline: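 Jurkat cells with NFAT-driven β-lactamase reporter and co-expressed M1 receptor, stimulated with carbachol (final 1 uM, ~EC50), compound titration, 5 h at 37 °C. CCF4 loaded 1 h at RT; 460/530 nm ratio gave %activity and AC50.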

[2] = Stat Signaling Pathway (AID 446; active = well fitted curve in either direction with a large enough effect, not every such curve was filed as active; inconclusive = small, poorly fitted or top-dose-only effect, or another doubt;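 note: ME-180 cervical cancer cells given 40 pM IL-6 alongside compound; SIE-controlled beta-lactamase reporter measured as 460/530 nm FRET emission ratio; top concentration of the series differs between compounds; % is set by controls: 0 for no effect and ±100 for the full control effect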); conditions: ME-180 SIE beta-lactamase reporter, IL-6 stimulated, 5 h; at 38 µM (top of the series) unless noted
Outline: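 Compound effects on IL-6-induced STAT reporter activity were measured in ME-180 cells. After overnight culture, cells were co-treated with 40 pM IL-6 for 5 hrs before beta-lactamase substrate loading at room temperature.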

[3] = qHTS Assay for Identification of Small Molecule Agonists for Hypoxia Response Element Signaling Pathway (AID 914; active = well fitted activation curve with a large enough effect in the signal ratio, with a control signal flat, not every such curve was filed as active; inconclusive = small, poorly fitted or top-dose-only effect, or effect the other way, or a change in a side signal; the % refers to the signal ratio; note: top concentration of the series differs between compounds; % of control where 0% means no effect); conditions: ME-180 HRE-bla reporter, beta-lactamase ratio, CoCl2, 17 h; activation: active compounds read high
Outline: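 Positive modulation of EC50 CoCl2-induced hypoxia response element signaling is measured in ME-180 cells with a beta-lactamase reporter. Compounds are titrated, incubation runs 17 hours, and %Activity derives from the blue/green ratio.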

[4] = Secretion counterscreen for inhibitors of the SERCaMP assay screened against the NCATS CANVASS Library (AID 1347390);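 note: light from luciferase secreted into medium read as a measure of general secretion; % is set by controls: 0 for no effect and ±100 for the full control effect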
Outline: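 Counterscreen for secretory-pathway interference: after 4 h attachment, SH-SY5Y-GLuc cells were exposed 20 hours to compounds (final 0.001 - 77 uM), then coelenterazine added and GLuc luminescence recorded; Brefeldin A served as control.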

[5] = molecular target: Cytochrome P450 1A2 (Homo sapiens) (UniProt P05177); experiment: p450-cyp1a2 (AID 410; calls by dose curve; note: potency is the fitted concentration of half-maximal effect)
Chain of UniProt P05177 (P05177 whole entry, looked up): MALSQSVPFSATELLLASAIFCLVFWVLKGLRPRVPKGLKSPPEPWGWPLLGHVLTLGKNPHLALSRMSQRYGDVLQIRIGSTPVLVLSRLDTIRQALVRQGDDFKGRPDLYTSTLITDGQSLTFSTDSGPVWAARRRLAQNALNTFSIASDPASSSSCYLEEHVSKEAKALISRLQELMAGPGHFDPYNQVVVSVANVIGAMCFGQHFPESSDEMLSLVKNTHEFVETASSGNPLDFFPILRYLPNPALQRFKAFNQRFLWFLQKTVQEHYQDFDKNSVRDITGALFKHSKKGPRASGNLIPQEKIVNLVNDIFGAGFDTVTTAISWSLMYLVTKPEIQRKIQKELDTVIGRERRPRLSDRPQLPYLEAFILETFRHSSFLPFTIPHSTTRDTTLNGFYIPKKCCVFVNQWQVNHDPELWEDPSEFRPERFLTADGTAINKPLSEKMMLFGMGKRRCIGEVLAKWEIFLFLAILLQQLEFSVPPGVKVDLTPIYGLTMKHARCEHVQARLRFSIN
Outline: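 Read-out is luminescence from luciferin produced by CYP1A2 demethylation of Luciferin-ME (100uM, at Km). Detection reagent stopped the 60 min NADPH-dependent reaction; signals were normalized to 57 uM furafylline.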

[6] = qHTS Assay for Identification of Small Molecule Antagonists for NFkB Signaling Pathway (AID 895; active = well fitted inhibition curve with a large enough effect in the signal ratio, with a control signal flat, not every such curve was filed as active; inconclusive = small, poorly fitted or top-dose-only effect, or effect the other way, or a change in a side signal; the % refers to the signal ratio; note: potency is the fitted concentration of half-maximal effect); conditions: NFkB beta-lactamase reporter cells, FRET ratio 460/530; activity change, negative = inhibition: at 38.3 µM (top of the series) unless noted
Outline: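 ME-180 NFkB-bla cells (beta-lactamase under NFkB response element), plated overnight, treated with compound then 10 pM TNF alpha (about EC50) for 5 hrs at 37 C. LiveBLAzer FRET read at 460/530 nm emission, 405 nm excitation.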

[7] = qHTS Assay for Identification of Small Molecule Agonists for Thrombopoietin (TPO) Signaling Pathway (AID 917); note: potency is the fitted concentration of half-maximal effect
Outline: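 Luciferase reporter (Glycoprotein IIb promoter) in IL-3-deprived Ba/F3 cells carrying human TPO receptor; compounds co-added with 26 pM TPO, incubated 24 h, 37 C. Steadylite luminescence measured after 10 min.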

[8] = molecular target: Muscarinic acetylcholine receptor M1 (Rattus norvegicus) (UniProt P08482); experiment: qHTS Assay for Antagonists of Acetylcholine Muscarinic M1 Receptor: Kinetic Measurement of Intracellular Calcium Response (AID 943); note: potency is the fitted concentration of half-maximal effect; nearly all actives have a fitted effect of over 75% in size
Chain of UniProt P08482 (P08482 whole entry, looked up): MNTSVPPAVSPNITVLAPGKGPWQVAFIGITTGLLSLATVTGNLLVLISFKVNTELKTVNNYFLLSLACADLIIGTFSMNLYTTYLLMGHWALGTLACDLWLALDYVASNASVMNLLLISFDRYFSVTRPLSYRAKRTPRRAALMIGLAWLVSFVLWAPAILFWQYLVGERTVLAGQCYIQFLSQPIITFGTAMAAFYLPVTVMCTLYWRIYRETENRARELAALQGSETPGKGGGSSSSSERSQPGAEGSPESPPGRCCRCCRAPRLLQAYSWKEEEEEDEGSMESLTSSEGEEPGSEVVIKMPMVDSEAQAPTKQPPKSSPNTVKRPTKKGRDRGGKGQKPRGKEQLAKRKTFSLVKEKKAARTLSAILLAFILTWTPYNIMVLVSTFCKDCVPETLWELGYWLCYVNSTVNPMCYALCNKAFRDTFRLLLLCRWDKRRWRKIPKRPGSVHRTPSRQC
Outline: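 Quantitative HTS in CHO-M1 (rat receptor) cells: 10 min compound exposure ahead of 100 nM carbachol, Fluo-4 fluorescence followed 4 min, value expressed as peak-to-basal ratio.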

[9] = molecular target: Muscarinic acetylcholine receptor M1 (Rattus norvegicus) (UniProt P08482); experiment: qHTS Assay for Antagonists of Acetylcholine Muscarinic M1 Receptor: Measurement of IP-One Response (AID 944); note: potency is the fitted concentration of half-maximal effect; nearly all actives have a fitted effect of over 75% in size
[10] = MultiTox-Fluor Cytotoxicity Assay - LYMP1-002 - Dead Cells (AID 960); conditions: LYMP1-002 lymphoblastoid cells, dead-cell protease fluorescence; cytotoxicity (dead cells): at 46.1 µM (top of the series);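 note: 0% = DMSO and 100% = tetraoctylammonium bromide; nearly all actives have a fitted effect of over 60% in size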
Outline: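 Concentration-dependent increases in membrane-leaked protease activity are quantified in LYMP1-002 cells after 16 hr treatment; values are normalized against DMSO and tetraoctylammonium bromide (15 uM) controls and AC50 derived by Hill modeling.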

[11] = molecular target: Endonuclease 4 (Escherichia coli (strain K12)) (UniProt P0A6C1); experiment: Counterscreen for APE1 Inhibitors: qHTS Validation Assay for Inhibitors of Endonuclease IV (AID 1708); note: potency is the fitted concentration of half-maximal effect
Outline: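 Read-out: fluorescence rise (ex 525/em 598 nm) from incision of a TAMRA/BHQ-2 double-stranded THF abasic-site substrate (50 nM), measured kinetically; third-minus-first read difference gave reaction progress. Enzyme 2 nM.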

[12] = Validation screen for small molecules that induce DNA re-replication in MCF 10A normal breast cells (AID 463097); note: 0% is about no effect; nearly all actives have a fitted effect of over 60% in size
Outline: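 Read-out is Hoechst total nuclear intensity by fluorescence scanning imager, flagging increased high-DNA-content nuclei. Compounds were incubated with MCF 10A cells for 48 hr (37 C, 5% CO2) before 40 min staining.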

[13] = molecular target: Chromobox protein homolog 1 (Homo sapiens) (UniProt P83916); experiment: qHTS Validation Assay for Inhibitors of HP1-beta Chromodomain Interactions with Methylated Histone Tails (AID 488953);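 note: loss of AlphaScreen luminescence from HP1-beta binding biotinylated H3K9me3 peptide; % is set by controls: 0 for no effect and ±100 for the full control effect; nearly all actives have a fitted effect of over 50% in size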
Chain of UniProt P83916 (P83916 whole entry, looked up): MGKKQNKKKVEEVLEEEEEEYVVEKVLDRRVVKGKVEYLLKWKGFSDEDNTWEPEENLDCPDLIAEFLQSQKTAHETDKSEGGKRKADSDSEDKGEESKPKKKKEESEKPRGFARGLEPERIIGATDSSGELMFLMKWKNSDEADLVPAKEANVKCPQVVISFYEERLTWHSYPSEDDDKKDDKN
Outline: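 Compounds pinned into a preassembled complex of HP1-beta and trimethyl-K9 histone H3(1-18) biotin peptide (50 nM each; PBS pH 7.4, 0.01% Tween-20). After 30 min, bead-based AlphaScreen detection followed.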

[14] = Validation screen for small molecules that induce genotoxicity in human embryonic kidney (HEK293T) cells expressing luciferase-tagged ELG1 (AID 493106); note: 0% is about no effect
Outline: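 In this validation screen, increased ELG1-luciferase signal flags compounds causing genetic stress. HEK293T reporter cells are treated 16 hr (37 °C, 5% CO2), developed with ONE-Glo for 30 min at room temperature, and imaged on a CCD-based reader.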

[15] = qHTS for Inhibitors of ATXN expression: Validation (AID 588378); note: % is set by controls: 0 for no effect and ±100 for the full control effect; nearly all actives have a fitted effect of over 75% in size
Outline: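 Luciferase luminescence (Bright-Glo) from an ATXN2-FFLuc HEK293 line after 24 h compound exposure at 37 °C, preceded by a CellTiter-Fluor fluorescence viability read. Serial dilutions of a reference ATXN2 inhibitor and a luciferase inhibitor served as controls.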

[16] = molecular target: Bile acid receptor (Homo sapiens) (UniProt Q96RI1); experiment: qHTS assay for small molecule antagonists of farnesoid X receptor signaling (AID 588526; calls by dose curve; note: % is set by controls: 0 for no effect and ±100 for the full control effect); conditions: HEK293T FXR-UAS-bla, beta-lactamase ratio, antagonist mode; activity change, negative = inhibition: at 76.7 µM (top of the series)
Outline: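 Antagonist mode: titrated compounds tested against chenodeoxycholic acid stimulation (normalized to 50 uM CDCA and DMSO) in GeneBLAzer HEK293T cells for 16 h. Beta-lactamase read by CCF4 fluorescence; IC50 from Hill fits.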

[17] = molecular target: Peroxisome proliferator-activated receptor delta (Homo sapiens) (UniProt Q03181); experiment: qHTS assay for small molecule antagonists of peroxisome proliferator-activated receptor delta signaling (AID 588535; active = well fitted inhibition curve with a large enough effect in the signal ratio, with a control signal flat, not every such curve was filed as active; inconclusive = small, poorly fitted or top-dose-only effect, or effect the other way, or a change in a side signal; inactive = no such curve, though single readings can be large or run the other way; the % refers to the signal ratio); conditions: HEK293T PPARd-UAS-bla, beta-lactamase FRET ratio, 18 h; activity change, negative = inhibition: at 76.7 µM (top of the series)
Chain of UniProt Q03181 (Q03181 whole entry, looked up): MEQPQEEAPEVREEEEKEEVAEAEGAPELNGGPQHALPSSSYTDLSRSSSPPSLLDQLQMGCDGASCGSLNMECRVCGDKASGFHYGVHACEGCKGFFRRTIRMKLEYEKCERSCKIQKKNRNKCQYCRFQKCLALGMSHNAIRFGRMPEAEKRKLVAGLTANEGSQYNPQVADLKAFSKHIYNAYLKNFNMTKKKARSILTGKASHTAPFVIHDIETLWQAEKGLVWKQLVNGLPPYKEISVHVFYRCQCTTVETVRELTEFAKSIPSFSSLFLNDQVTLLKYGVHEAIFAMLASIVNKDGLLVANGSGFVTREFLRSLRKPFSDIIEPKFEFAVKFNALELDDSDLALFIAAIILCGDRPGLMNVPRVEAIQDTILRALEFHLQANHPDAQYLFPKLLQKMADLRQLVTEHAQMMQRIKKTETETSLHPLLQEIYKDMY
Outline: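 Beta-lactamase reporter read-out (405 nm excitation, 460/530 nm emission) after CCF4 loading for 2 hrs at RT. HEK293T PPAR-delta-UAS-bla cells, 2% charcoal/dextran FBS, compounds for 18 hrs at 37 C. Hill fit gave IC50 and efficacy.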

[18] = molecular target: Peroxisome proliferator-activated receptor gamma (Homo sapiens) (UniProt P37231); experiment: qHTS assay for small molecule antagonists of peroxisome proliferator-activated receptor gamma signaling (AID 588537; active = well fitted inhibition curve with a large enough effect in the signal ratio, with a control signal flat, not every such curve was filed as active; inconclusive = small, poorly fitted or top-dose-only effect, or effect the other way, or a change in a side signal; the % refers to the signal ratio;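 note: reporter cells co-stimulated with 50 nM rosiglitazone agonist during compound treatment; % of control where 0% means no effect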); conditions: HEK293 PPARg-UAS-bla, beta-lactamase ratio, antagonist mode; activity, negative = inhibition: at 76.8 µM (top of the series)
Outline: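 Read-out: CCF4 fluorescence (ex 405, em 460/530 nm) after 2 h at RT. Cells were HEK293 carrying a UAS-bla reporter and treated 16 h at 37 C with compound plus rosiglitazone (50 nM final). Normalized to rosiglitazone and DMSO.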

[19] = molecular target: Retinoic acid receptor RXR-alpha (Homo sapiens) (UniProt P19793); experiment: qHTS assay for small molecule antagonists of retinoid X receptor alpha signaling (AID 588546; active = well fitted inhibition curve with a large enough effect in the signal ratio, with a control signal flat, not every such curve was filed as active; inconclusive = small, poorly fitted or top-dose-only effect, or effect the other way, or a change in a side signal; inactive = no such curve, though single readings can be large or run the other way; the % refers to the signal ratio); conditions: HEK293T RXRa-UAS-bla, beta-lactamase ratio, antagonist mode
Chain of UniProt P19793 (P19793 whole entry, looked up): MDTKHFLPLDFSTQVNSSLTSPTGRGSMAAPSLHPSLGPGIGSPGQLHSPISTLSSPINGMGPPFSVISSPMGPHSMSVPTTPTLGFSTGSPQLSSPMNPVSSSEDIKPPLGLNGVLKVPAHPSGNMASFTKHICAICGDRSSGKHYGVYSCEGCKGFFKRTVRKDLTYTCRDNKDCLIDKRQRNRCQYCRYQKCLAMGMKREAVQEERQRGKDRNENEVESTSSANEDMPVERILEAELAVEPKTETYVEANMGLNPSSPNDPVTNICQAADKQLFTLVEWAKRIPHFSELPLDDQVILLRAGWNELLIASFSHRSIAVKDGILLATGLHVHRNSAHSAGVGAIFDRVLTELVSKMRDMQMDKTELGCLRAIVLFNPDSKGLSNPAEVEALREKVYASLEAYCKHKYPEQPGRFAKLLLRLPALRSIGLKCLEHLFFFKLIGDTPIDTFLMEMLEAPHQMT
Outline: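 Beta-lactamase reporter inhibition, read as CCF4 fluorescence ratio (ex 405, em 460/530 nm) after 2 h at RT. HEK293T UAS-bla cells, 2500/well, were stimulated with 9-cis-RA at 500 or 100 nM final alongside test compound for 18 h at 37 C.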

[20] = qHTS assay for small molecule agonists of the antioxidant response element (ARE) signaling pathway (AID 651741; active = well fitted activation curve with a large enough effect in the signal ratio; inconclusive = small, poorly fitted or top-dose-only effect, or effect the other way, or a change in a side signal; the % refers to the signal ratio; note: potency is the fitted concentration of half-maximal effect); conditions: HepG2 ARE-bla reporter, beta-lactamase FRET ratio, 16 h; activation: at 96 µM (top of the series)
Outline: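 HepG2 ARE-bla reporter cells, 2,000/well; 5 h settle at 37 C/5% CO2; compound pin transfer (23 nL, DMSO); 16 h at 37 C; LiveBLAzer B/G FRET substrate, 2 h RT; fluorescence intensity read.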

[21] = molecular target: Tumor necrosis factor (Homo sapiens) (UniProt P01375); experiment: qHTS assay to identify small molecules that stimulate Tumor Necrosis Factor-alpha (TNF-alpha) secretion (AID 651757; active = well fitted curve in the direction sought with a large enough effect in the signal ratio; inconclusive = small, poorly fitted or top-dose-only effect, or a change in a side signal; inactive = no such curve, though single readings can be large or run the other way; the % refers to the signal ratio; note: 0% is about no effect); conditions: Human cells, HTRF 665/615 ratio; activation (TNF-alpha secretion): at 92.2 µM (top of the series)
Chain of UniProt P01375 (P01375 whole entry, looked up): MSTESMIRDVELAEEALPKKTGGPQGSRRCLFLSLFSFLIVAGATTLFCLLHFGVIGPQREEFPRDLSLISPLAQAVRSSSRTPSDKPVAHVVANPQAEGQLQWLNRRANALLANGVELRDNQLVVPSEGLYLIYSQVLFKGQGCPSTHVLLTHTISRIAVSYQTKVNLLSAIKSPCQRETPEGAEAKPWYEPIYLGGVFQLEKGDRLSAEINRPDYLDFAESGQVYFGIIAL
Outline: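 Using 3000 THP-1 cells per well, compounds and controls were applied for 17 hrs at 37 C. Detection followed with two labeled anti-TNF-alpha antibodies (cryptate donor, XL665 acceptor) for 3 hr at room temperature, measured by TR-FRET.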

[22] = qHTS assay to identify small molecules that stimulate interleukin-8 (IL-8) secretion (AID 651758; active = well fitted activation curve with a large enough effect in the signal ratio; inconclusive = small, poorly fitted or top-dose-only effect, or effect the other way, or a change in a side signal; the % refers to the signal ratio; note: 0% is about no effect); conditions: HTRF ratio (665/615); activation: at 92.2 µM (top of the series)
Outline: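 Compounds are added to THP-1 cells (2000 per well) and left 16 hrs at 37 C. A labeled anti-IL-8 antibody pair is then added, and IL-8 secretion is measured by time-resolved FRET after 1-3 hrs at room temperature.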

[23] = qHTS assay for small molecule antagonists of the retinoid-related orphan receptor gamma (ROR-gamma) signaling pathway - cell viability counter screen (AID 720652; active = well fitted curve in the direction sought with a large enough effect in the repeat runs; inconclusive = weak or mixed curves; inactive = no such curve, though single readings can be large; an effect the other way counts as inactive or inconclusive)
Outline: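 ATP-based viability readout in the ROR-gamma reporter CHO cells after 16 hr compound exposure under doxycycline induction.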

[24] = molecular target: Lysine-specific demethylase 5B (Homo sapiens) (UniProt Q9UGL1); experiment: Optimization screen for KDM5B Histone Demethylases FDH coupled qHTS against the LOPAC library (AID 1347166); conditions: KDM5B demethylation, FDH-coupled NADH fluorescence (FDH is formaldehyde dehydrogenase); activity, negative = inhibition: at 57.5 µM (top of the series) unless noted; note: potency is the fitted concentration of half-maximal effect
Chain of UniProt Q9UGL1 (Q9UGL1 whole entry, looked up): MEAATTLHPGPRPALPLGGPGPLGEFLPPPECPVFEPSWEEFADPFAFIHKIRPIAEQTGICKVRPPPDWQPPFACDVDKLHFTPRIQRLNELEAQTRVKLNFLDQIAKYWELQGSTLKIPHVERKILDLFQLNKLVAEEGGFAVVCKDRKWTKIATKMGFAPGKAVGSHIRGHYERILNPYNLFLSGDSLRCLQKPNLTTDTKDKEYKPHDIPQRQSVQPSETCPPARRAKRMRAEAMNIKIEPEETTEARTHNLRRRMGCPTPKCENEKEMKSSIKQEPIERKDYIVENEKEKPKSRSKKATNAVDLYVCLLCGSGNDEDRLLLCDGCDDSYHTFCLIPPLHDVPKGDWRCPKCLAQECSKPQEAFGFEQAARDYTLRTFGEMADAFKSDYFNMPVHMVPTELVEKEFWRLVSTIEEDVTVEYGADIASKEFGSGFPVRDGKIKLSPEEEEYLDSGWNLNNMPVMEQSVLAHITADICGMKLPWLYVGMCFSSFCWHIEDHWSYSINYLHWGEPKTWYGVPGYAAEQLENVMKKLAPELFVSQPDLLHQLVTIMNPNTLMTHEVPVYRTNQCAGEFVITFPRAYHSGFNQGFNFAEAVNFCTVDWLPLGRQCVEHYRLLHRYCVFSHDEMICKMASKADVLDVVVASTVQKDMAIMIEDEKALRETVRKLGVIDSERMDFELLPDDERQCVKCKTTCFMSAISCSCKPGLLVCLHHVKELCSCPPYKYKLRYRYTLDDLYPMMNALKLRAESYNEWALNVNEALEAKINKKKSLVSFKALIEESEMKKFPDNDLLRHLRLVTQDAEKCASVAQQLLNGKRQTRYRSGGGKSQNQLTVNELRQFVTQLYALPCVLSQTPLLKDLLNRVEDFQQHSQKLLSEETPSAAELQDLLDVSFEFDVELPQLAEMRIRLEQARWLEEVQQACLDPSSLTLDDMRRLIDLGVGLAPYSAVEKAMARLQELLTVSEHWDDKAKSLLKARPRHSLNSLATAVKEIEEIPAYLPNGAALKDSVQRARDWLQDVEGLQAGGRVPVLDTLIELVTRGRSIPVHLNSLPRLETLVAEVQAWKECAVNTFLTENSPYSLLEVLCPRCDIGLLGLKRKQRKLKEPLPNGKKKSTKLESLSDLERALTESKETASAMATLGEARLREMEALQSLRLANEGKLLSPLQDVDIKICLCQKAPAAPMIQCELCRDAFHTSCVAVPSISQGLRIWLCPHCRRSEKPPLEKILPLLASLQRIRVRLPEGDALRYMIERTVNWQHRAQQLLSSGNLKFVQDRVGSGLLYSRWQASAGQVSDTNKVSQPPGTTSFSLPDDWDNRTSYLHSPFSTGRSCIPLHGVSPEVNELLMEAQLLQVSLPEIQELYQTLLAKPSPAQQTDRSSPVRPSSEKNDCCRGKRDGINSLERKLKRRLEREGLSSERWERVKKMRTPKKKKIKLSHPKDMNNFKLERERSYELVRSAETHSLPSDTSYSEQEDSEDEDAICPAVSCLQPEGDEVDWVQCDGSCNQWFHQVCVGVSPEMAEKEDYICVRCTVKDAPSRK
Outline: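 KDM5BDeltaAP (200nM final) in 50mM HEPES pH 7.5, 0.01% Tween-20 was preincubated with compound for 10 min at room temperature. A substrate mix of 12.5uM H3K4Me3, 25uM a-ketoglutarate, ascorbate, Fe2+, NAD+ and formaldehyde dehydrogenase was then added. NADH fluorescence (340/450 nm) was read initially and after 30 min.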

[25] = Primary qHTS for small molecule stabilizers of the endoplasmic reticulum resident proteome: Secreted ER Calcium Modulated Protein (SERCaMP) assay (AID 1508630); conditions: SH-SY5Y GLuc-SERCaMP secretion, thapsigargin, luminescence; activity change, negative = inhibition: at 38.4 µM (top of the series); note: potency is the fitted concentration of half-maximal effect
Outline: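 The SH-SY5Y reporter protocol was run at 3 concentrations up to 38.3 uM (primary) or 11 concentrations (follow-up): 16 h compound, 100 nM thapsigargin for 4 h, then extracellular luciferase luminescence.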

[26] = HEK-293 Cancer Cell Toxicity qHTS against the NCATS CANVASS Library (AID 1347355); note: potency is the fitted concentration of half-maximal effect; nearly all actives have a fitted effect of over 65% in size
Outline: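 Using an ATP-based luminescent reagent after three days of treatment, toxicity is scored across an eleven-concentration range in wells holding 1000 cells each.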

[27] = qHTS for Antimalaria activity screened against the NCATS CANVASS Library (AID 1347380); note: potency is the fitted concentration of half-maximal effect; nearly all actives have a fitted effect of over 40% in size
Outline: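 Measures proliferation or cytotoxicity against Dd2 blood stages in 72 h cultures, 11-point qHTS dosing, with SYBR Green fluorescence as read-out; dihydroartemisinin titration served as control.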

[28] = qHTS for inhibitors of ER calcium dysfunction: SERCaMP assay screened against the NCATS CANVASS Library (AID 1347393); conditions: SH-SY5Y GLuc-SERCaMP secretion, thapsigargin, luminescence; activity change, negative = inhibition: at 76.6 µM (top of the series); note: potency is the fitted concentration of half-maximal effect; nearly all actives have a fitted effect of over 40% in size
Outline: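 SH-SY5Y GLuc-SERCaMP, 1000 cells/well, 4 h attach; cpd 16 h, 37C/5% CO2; thapsigargin (added as 6x 600 nM) 4 h; coelenterazine; luminescence. Reduced reporter release = ER Ca stabilization.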

[29] = qHTS for inhibitors of Rabies Virus screened against the NCATS CANVASS Library (AID 1347402; calls by dose curve; note: potency is the fitted concentration of half-maximal effect; for activity change, negative = inhibition: 0% is about no effect)
Tags give direction and shape of the fitted curve or compound fluorescence and quenching.

## CNCCc1c[nH]c2ccccc12
[1]
  activity change, negative = inhibition: inactive: -6.51% [at 17.2 µM]
[2]
  activity, negative = inhibition: inactive: 12.2% [at 17.2 µM]
[3]
  activation: inactive: -14%
[4]
  Potency: inactive

## NNC(N)=O
[5]
  Potency: inconclusive: 39.8 µM [decreasing]
[1]
  activity change, negative = inhibition: inconclusive: -59.5% [inhibitor] [at 38 µM]
[6]
  Potency: inconclusive: 10 µM [side channel, rising, single point]
[7]
  Potency: inconclusive: 0.126 µM [inhibitor, full curve, poor fit]
[8]
  Potency: inconclusive: 17.8 µM [inhibitor, partial curve, poor fit]
[9]
  Potency: inconclusive: 8.91 µM [inhibitor, full curve, poor fit]
[10]
  Potency: inactive
[11]
  Potency: inconclusive: 4.47 µM [inhibitor, full curve, poor fit]
[12]
  Potency: inactive
[13]
  Potency: inactive
[14]
  Potency: inactive
[15]
  Potency: inactive
[16]
  activity change, negative = inhibition: inconclusive: -7.64%
[17]
  activity change, negative = inhibition: inconclusive: -9.96%
[18]
  activity, negative = inhibition: inconclusive: 5.74%
[19]
  max response: inconclusive: -4.04%
[20]
  Potency: inconclusive: 47.3 µM [activator, partial curve]
[21]
  Potency: inactive
[22]
  activation: inconclusive: 21%
[23]
  Potency: inactive
[24]
  Potency: inconclusive: 25.1 µM [inhibitor, partial curve, poor fit]
[25]
  Potency: inconclusive: 1 µM [inhibitor, full curve, poor fit]

## CC[C@@H]1CN2CC[C@@]3(O)C(=Nc4cccc(OC)c43)[C@@H]2C[C@@H]1/C(=C\OC)C(=O)OC
[26]
  Potency: inconclusive: 6.62 µM [cytotoxic, partial curve, poor fit]
[27]
  Potency: active: 14.9 µM
[4]
  Potency: inactive
[28]
  Potency: inconclusive: 5.43 µM [inhibitor, partial curve]
[29]
  Potency: inactive

## C[C@@]12C[C@@H](C[C@H]3C(=O)O[C@@H](c4ccoc4)[C@H](OC(=O)c4ccccc4)[C@@H]31)OC2=O
[29]
  Potency: inconclusive: 18.5 µM [inhibitor, single point]
